Experimental data reported in PubChem BioAssay AID938 (National Center for Advancing Translational Sciences (NCATS), 2007).
The whole screen tested about 73,000 compounds, of which about 1,800 (2.5%) were called active. This list was built around the results that the source calls inconclusive (neither active nor inactive); the mix of calls is not that of the screen. Calls come from the whole dose curve; as a rule, active = well fitted activation curve with a large enough effect; inconclusive = small, poorly fitted or top-dose-only effect; inactive = no such curve, though single readings can be large or run the other way. No potency is given beside an inconclusive call; the fits are too rough.
Potency is the fitted concentration of half-maximal effect; tags give direction and shape of the fitted curve.

Assay: qHTS Assay for Agonists of the Thyroid Stimulating Hormone Receptor: Activators of Intracellular cAMP Concentrations in Parental HEK 293; note: nearly all actives have a fitted effect of over 55% in size; for activation: % of control where 0% means no effect
Conditions: parental HEK293 CNG cAMP sensor, membrane potential fluorescence; activation: at 57.1 µM (top of the series) unless noted
In short: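 Parental HEK 293 cells stably expressing a cAMP-gated CNG channel were loaded with membrane potential dye containing 100 uM RO 20-1724 for 60 min. Compound added for 30 min; depolarization read as fluorescence intensity at 590 nm.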
With CCn1cc(C(=O)O)c(=O)c2cc(OC)ccc21 the Potency was inconclusive [activator, single point]. With CCOc1ccc(-c2nc(CSCC(=O)N3CCN(C(=O)c4ccco4)CC3)c(C)o2)cc1 the Potency was inconclusive [activator, partial curve, poor fit]. In the case of NC(=O)c1cc[n+](CC2=C(C(=O)O)N3C(=O)[C@@H](NC(=O)[C@H](c4ccccc4)S(=O)(=O)[O-])[C@@H]3SC2)cc1, the Potency is reported as “inactive”. With COc1ccc(C2CC(=O)C(C=NCCO)=C(O)C2)cc1OC (stereo not given) the Potency was inconclusive [activator, single point]. In the case of CCCCC(=O)Nc1cc2nn(-c3ccc(OC)cc3)nc2cc1C, the “activation” value is reported as inactive: 8.6%. With O=c1c(-c2cccc(Cl)c2)nc2cncnc2n1-c1ccccc1 the Potency was inconclusive [activator, partial curve]. With O=C(COc1ccc(Cl)cc1)Nc1nc(-c2cccs2)cs1 the Potency was active: 25.1 µM. In the case of CCOC(=O)N1CCN(S(=O)(=O)c2ccc(F)c(C(=O)Nc3cccc(C)c3C)c2)CC1, the Potency is reported as inconclusive [activator, single point]. In the case of O=c1[nH]c2ccccc2c(=O)n1Cc1ccco1, the Potency is reported as inconclusive [activator, single point]. For CCCCNC(=O)CN1CCC2(O)CCCCC2C1c1ccccc1OC (stereo not given), the Potency was inconclusive [activator, partial curve]. In the case of Cc1onc(-c2ccccc2)c1C(=O)Nc1cc(C(F)(F)F)ccc1N1CCOCC1, the Potency is reported as inconclusive [activator, single point]. With Cc1ccc(S(=O)(=O)NC(=O)NN2CCCCCC2)cc1 the Potency was “inactive”. With Cc1cccc(OCc2nc(C#N)c(N3CC(C)CC(C)C3)o2)c1 (stereo not given) the Potency was active: 6.31 µM. With COCCn1c(=O)c(-c2ccc(OC)cc2)nc2cnc(Nc3ccccc3)nc21 the “activation” value was inactive: 13.1%. With CCCCn1c(SCc2nnc(-c3ccccc3)o2)nc2c1c(=O)n(C)c(=O)n2C the Potency was active: 25.1 µM. In the case of CC(/C=C/c1ccccc1)NC(N)=O (stereo not given), the activation is reported as inconclusive: 33.2% [activator]. For CCOC(=O)c1cnc(SCc2ccc(C)cc2)nc1N, the Potency was inconclusive [activator, single point]. For C=CCn1c(SCC(=O)Nc2ccccc2OC)nnc1-c1ccccn1, the Potency was inconclusive [activator, single point]. With CCOc1ccccc1C1CC(=O)Nc2cc3c(cc21)OCCO3 (stereo not given) the Potency was inconclusive [activator, partial curve]. With O=C(CCn1c(=O)sc2ccccc21)NCCCn1ccnc1 the Potency was inconclusive [activator, partial curve].
